Laboratory results reported in the supplement of paper PMC6609913.
Where a name gives a salt, the structure may show the parent alone. ± gives the standard deviation of the averaged measurements. Whole data set: some 1,300 compounds, median “normalised cell viability” near 1, cut for the lowest 2% near 0.15. The list shows a part of the results.

System: V-C8 + BRCA2 (BRCA2-proficient hamster cells)
Assay: normalised cell viability (fraction of plate median); higher = more viable cells (less toxic)
Conditions: 5 µM
In short: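 Cell viability was measured with a resazurin assay, normalised to the plate median (modified robust per cent of sample) and averaged over triplicate wells. Hamster V-C8 cells lacking BRCA2 and V-C8 cells with BRCA2 restored were seeded in 96-well plates. After 24 h, library drugs from 10 mM DMSO stocks were added at a final 5 μM in 100 μl medium and left for 3 days (screen 1) or 6 days (screen 2), with solvent-only wells alongside.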

| Structure (SMILES) | normalised cell viability (treatment time: 3 days) | normalised cell viability (treatment time: 6 days) |
| --- | --- | --- |
| CCOc1cc(CC(=O)N[C@@H](CC(C)C)c2ccccc2N2CCCCC2)ccc1C(=O)O [Repaglinide] | 0.966 ± 0.053 | 0.99 ± 0.073 |
| C#C[C@]1(O)CC[C@H]2[C@@H]3CCc4cc(O)ccc4[C@H]3CC[C@@]21C [Ethinylestradiol] | 0.996 ± 0.036 | 1.06 ± 0.13 |
| CCCCN(CCCC)CCC(O)c1cc2c(Cl)cc(Cl)cc2c2cc(C(F)(F)F)ccc12 (stereo not given) [Halofantrine hydrochloride] | 0.849 ± 0.027 | 0.93 ± 0.027 |
| C[C@@H](O)[C@H]1C(=O)N2C(C(=O)O)=C(S[C@@H]3CN[C@H](C(=O)N(C)C)C3)[C@H](C)[C@H]12 [Meropenem] | 1.02 ± 0.037 | 1.04 ± 0.053 |
| CC(=O)O[C@H]1C[C@@H]2CC[C@@H]3[C@H](CC[C@@]4(C)[C@H]3C[C@H]([N+]3(C)CCCCC3)[C@@H]4OC(C)=O)[C@@]2(C)C[C@@H]1N1CCCCC1 [Vecuronium bromide] | 1.03 ± 0.025 | 1.03 ± 0.086 |
| C[C@]12C=CC(=O)C=C1CC[C@H]1[C@@H]3C[C@@H](O)[C@](O)(C(=O)CO)[C@@]3(C)C[C@H](O)[C@@]12F [Triamcinolone] | 1.08 ± 0.038 | 1.07 ± 0.034 |
| CC1(C)O[C@@H]2C[C@H]3[C@@H]4CCC5=CC(=O)CC[C@]5(C)[C@@]4(F)[C@@H](O)C[C@]3(C)[C@]2(C(=O)CCl)O1 [Halcinonide] | 1.18 ± 0.2 | 1.06 ± 0.03 |
| CCN(CC)C(=O)/C(C#N)=C/c1cc(O)c(O)c([N+](=O)[O-])c1 [Entacapone] | 0.944 ± 0.013 | 1.03 ± 0.03 |
| OC(c1cc(C(F)(F)F)nc2c(C(F)(F)F)cccc12)C1CCCCN1 (stereo not given) [Mefloquine hydrochloride] | 0.607 ± 0.067 | 0.891 ± 0.041 |
| CNCCCC12CCC(c3ccccc31)c1ccccc12 [Maprotiline hydrochloride] | 1.01 ± 0.053 | 0.812 ± 0.032 |
| C[C@@H]1C[C@H]2[C@@H]3C[C@H](F)C4=CC(=O)C=C[C@]4(C)[C@@]3(Cl)[C@@H](O)C[C@]2(C)[C@H]1C(=O)COC(=O)C(C)(C)C [Clocortolone pivalate] | 1.03 ± 0.27 | 0.899 ± 0.07 |
| CCCCCNC(=N)N/N=C/c1c[nH]c2ccc(OC)cc12 [Tegaserod maleate] | 0.1362 ± 0.0013 | 0.155 ± 0.022 |
| NS(=O)(=O)c1cc(Cl)c(Cl)c(S(N)(=O)=O)c1 [Dichlorphenamide] | 1.09 ± 0.05 | 0.961 ± 0.035 |
| CCN1CCCC(OC(=O)C(c2ccccc2)c2ccccc2)C1 (stereo not given) [Piperidolate hydrochloride] | 1.09 ± 0.039 | 1.07 ± 0.06 |
| CN(C)CCCSC(=N)N [Dimaprit dihydrochloride] | 0.995 ± 0.046 | 0.955 ± 0.019 |
| Cc1onc(-c2c(F)cccc2Cl)c1C(=O)N[C@@H]1C(=O)N2[C@@H]1SC(C)(C)[C@@H]2C(=O)O [Flucloxacillin sodium] | 1.02 ± 0.065 | 0.984 ± 0.016 |
| C[C@H](Cc1cc2c(c(C(N)=O)c1)N(CCCO)CC2)NCCOc1ccccc1OCC(F)(F)F [Silodosin] | 0.981 ± 0.025 | 1.02 ± 0.055 |
| O=C(NCCN1CCOCC1)c1ccc(Cl)cc1 [Moclobemide] | 1.08 ± 0.021 | 0.989 ± 0.045 |
| CN1C(=O)OC(C)(C)C1=O [Trimethadione] | 1.12 ± 0.055 | 1.02 ± 0.077 |
| CC(=O)CCCCn1c(=O)c2c(ncn2C)n(C)c1=O [Pentoxifylline] | 1.084 ± 0.0065 | 1.05 ± 0.065 |
| CN(C/C=C/c1ccccc1)Cc1cccc2ccccc12 [Naftifine hydrochloride] | 0.211 ± 0.0033 | 0.243 ± 0.015 |
| OCCN1CCN(CCCN2c3ccccc3C=Cc3ccccc32)CC1 [Opipramol dihydrochloride] | 1.043 ± 0.0039 | 0.999 ± 0.018 |

| Structure (SMILES) | normalised cell viability (treatment time: 3 days) | normalised cell viability (treatment time: 6 days) |
| --- | --- | --- |
| CC(C)NC[C@H](O)COc1cccc2ccccc12 [(S)-propranolol hydrochloride] | 0.997 ± 0.02 | 1.05 ± 0.075 |
| CNC(=O)c1c(I)c(C(=O)NCC(=O)Nc2c(I)c(C(=O)O)c(I)c(C(=O)NCCO)c2I)c(I)c(N(C)C(C)=O)c1I [Ioxaglic acid] | 1 ± 0.058 | 1.11 ± 0.086 |
| CCCCNc1cc(C(=O)O)cc(S(N)(=O)=O)c1Oc1ccccc1 [Bumetanide] | 1.03 ± 0.026 | 1.06 ± 0.12 |
| CC(=O)Oc1ccccc1C(=O)Oc1ccccc1C(=O)O [Acetylsalicylsalicylic acid] | 1.07 ± 0.061 | 1.04 ± 0.066 |
| CC(C)n1c(/C=C/C(O)CC(O)CC(=O)O)c(-c2ccc(F)cc2)c2ccccc21 (stereo not given) [Fluvastatin sodium salt] | 0.134 ± 0.0077 | 0.155 ± 0.013 |
| Cc1ccnc(NS(=O)(=O)c2ccc(N)cc2)n1 [Sulfamerazine] | 1.02 ± 0.062 | 0.859 ± 0.059 |
| C[C@H]1NC(=O)NC1=O [Methylhydantoin-5-(D)] | 1.02 ± 0.26 | 1.067 ± 0.0084 |
| NC(=O)OCC(COC(N)=O)c1ccccc1 [Felbamate] | 1.04 ± 0.037 | 1.08 ± 0.054 |
| N=C(N)NCc1cccc(I)c1 [Iobenguane sulfate] | 1.1 ± 0.017 | 1.15 ± 0.28 |
| NCCCC(O)(P(=O)(O)O)P(=O)(O)O [Alendronate sodium] | 0.685 ± 0.073 | 0.565 ± 0.024 |
| CNC[C@H](O)[C@@H](O)[C@H](O)[C@H](O)CO [Meglumine] | 0.938 ± 0.094 | 0.983 ± 0.037 |
| Nc1ccc(S(=O)(=O)Nc2cnc3ccccc3n2)cc1 [Sulfaquinoxaline sodium salt] | 1.04 ± 0.034 | 1.18 ± 0.14 |
| CN(C)CCn1nnnc1SCC1=C(C(=O)O)N2C(=O)[C@@H](NC(=O)Cc3csc(N)n3)[C@H]2SC1 [Cefotiam hydrochloride] | 1.03 ± 0.043 | 0.992 ± 0.04 |
| CC(=O)N[C@@H](CS)C(=O)O [Acetylcysteine] | 0.9896 ± 0.0073 | 1.02 ± 0.025 |
| CC(=O)O[C@H]1C[C@@]2(C)[C@@H](C[C@@H](O)[C@H]3[C@@]4(C)CC[C@@H](O)[C@@H](C)[C@@H]4CC[C@@]32C)/C1=C(\CCC=C(C)C)C(=O)O [Fusidic acid sodium salt] | 0.954 ± 0.013 | 1.08 ± 0.072 |
| CCN(CC)CCOC(=O)c1ccc(N)cc1 [Procaine hydrochloride] | 1.026 ± 0.0094 | 0.989 ± 0.019 |
| CC[C@H](C)C(=O)O[C@H]1C[C@@H](C)C=C2C=C[C@H](C)[C@H](CC[C@@H]3C[C@@H](O)CC(=O)O3)[C@H]21 [Lovastatin] | 0.19 ± 0.015 | 0.153 ± 0.019 |
| Cc1c(C)c2c(c(C)c1O)CCC(C)(C(=O)O)O2 (stereo not given) [Trolox] | 1.02 ± 0.027 | 1.07 ± 0.013 |
| Cc1ncc(CO)c(CO)c1O [Pyridoxine hydrochloride] | 1.01 ± 0.019 | 1.06 ± 0.046 |
| CCc1c(C)[nH]c2c1C(=O)C(CN1CCOCC1)CC2 (stereo not given) [Molindone hydrochloride] | 1.02 ± 0.021 | 1.1 ± 0.06 |
| CCC1(c2ccccc2)NC(=O)N(C)C1=O (stereo not given) [Mephenytoin] | 1.22 ± 0.4 | 1.03 ± 0.027 |
| CC1=C(/C=C/C(C)=C/C=C/C(C)=C/C(=O)O)C(C)(C)CCC1 [Retinoic acid] | 1.01 ± 0.04 | 0.978 ± 0.036 |

| Structure (SMILES) | normalised cell viability (treatment time: 3 days) | normalised cell viability (treatment time: 6 days) |
| --- | --- | --- |
| NC(=O)c1cc[n+](CC2=C(C(=O)[O-])N3C(=O)[C@@H](NC(=O)[C@@H](c4ccccc4)S(=O)(=O)O)[C@H]3SC2)cc1 [Cefsulodin sodium salt] | 0.981 ± 0.043 | 1.06 ± 0.048 |
| CC(=O)Oc1ccccc1C(=O)O [Acetylsalicylic acid] | 1.01 ± 0.044 | 1.05 ± 0.044 |
| N=C(N)NS(=O)(=O)c1ccc(N)cc1 [Sulfaguanidine] | 0.895 ± 0.066 | 0.989 ± 0.022 |
| COc1cc2nc(N(C)CCCNC(=O)C3CCCO3)nc(N)c2cc1OC (stereo not given) [Alfuzosin hydrochloride] | 0.987 ± 0.013 | 1.11 ± 0.076 |
| Clc1ccc(Cn2c(CN3CCCC3)nc3ccccc32)cc1 [Clemizole hydrochloride] | 1.29 ± 0.03 | 1.2 ± 0.027 |
| O=C(O)COCCN1CCN(C(c2ccccc2)c2ccc(Cl)cc2)CC1 (stereo not given) [Cetirizine dihydrochloride] | 1 ± 0.028 | 1.01 ± 0.063 |
| N[C@@H]1CONC1=O [D-cycloserine] | 1.02 ± 0.03 | 1.03 ± 0.054 |
| C#C[C@]1(OC(C)=O)CC[C@H]2[C@@H]3CCC4=CC(=NO)CC[C@@H]4[C@H]3CC[C@@]21CC (mixture of isomers) [Norgestimate] | 1.09 ± 0.24 | 0.949 ± 0.013 |
| CC(=O)O[C@]1(C(C)=O)CC[C@H]2[C@@H]3C=C(Cl)C4=CC(=O)[C@@H]5C[C@@H]5[C@]4(C)[C@H]3CC[C@@]21C [Cyproterone acetate] | 0.949 ± 0.087 | 1.02 ± 0.086 |
| Clc1ccc(CO/N=C(\Cn2ccnc2)c2ccc(Cl)cc2Cl)c(Cl)c1 [Oxiconazole Nitrate] | 1.07 ± 0.16 | 0.675 ± 0.12 |
| Clc1ccc(CSC(Cn2ccnc2)c2ccc(Cl)cc2Cl)cc1 (stereo not given) [Sulconazole nitrate] | 1.11 ± 0.06 | 0.942 ± 0.033 |
| CN1C(=O)CC(c2ccccc2)C1=O (stereo not given) [Phensuximide] | 1.06 ± 0.018 | 1.08 ± 0.084 |
| Nc1ccn([C@@H]2O[C@H](CO)[C@@H](O)C2(F)F)c(=O)n1 [Gemcitabine] | 0.212 ± 0.014 | 0.183 ± 0.0099 |
| CC1CNc2c(cccc2S(=O)(=O)N[C@@H](CCCNC(=N)N)C(=O)N2CC[C@@H](C)C[C@@H]2C(=O)O)C1 (stereo not given in full) [Argatroban] | 1.203 ± 0.0019 | 1.12 ± 0.14 |
| CN(C)CCN(Cc1ccccc1)c1ccccn1 [Tripelennamine hydrochloride] | 1.01 ± 0.022 | 1.03 ± 0.09 |
| CC(=O)O[C@@]12CO[C@@H]1C[C@H](O)[C@@]1(C)C(=O)[C@H](O)C3=C(C)[C@@H](OC(=O)[C@H](O)[C@@H](NC(=O)OC(C)(C)C)c4ccccc4)C[C@@](O)([C@@H](OC(=O)c4ccccc4)[C@H]21)C3(C)C [Docetaxel] | 0.258 ± 0.014 | 0.237 ± 0.023 |
| N=C(N)NC(=O)Cc1c(Cl)cccc1Cl [Guanfacine hydrochloride] | 1.08 ± 0.043 | 1.049 ± 0.0056 |
| NC(Cc1cc(I)c(Oc2cc(I)c(O)c(I)c2)c(I)c1)C(=O)O (stereo not given) [Thyroxine (L)] | 0.821 ± 0.05 | 0.888 ± 0.1 |
| CN(C)CC/C=C1/c2ccccc2Sc2ccc(Cl)cc21 [Chlorprothixene hydrochloride] | 1.01 ± 0.056 | 0.908 ± 0.021 |
| COc1ccc2[nH]c([S+]([O-])Cc3ncc(C)c(OC)c3C)nc2n1 (stereo not given) [Tenatoprazole] | 0.985 ± 0.047 | 1.028 ± 0.0098 |
| CN(C)CCOC(c1ccccc1)c1ccccc1 [Diphenhydramine hydrochloride] | 1.09 ± 0.049 | 1.04 ± 0.055 |
